The whole screen tested about 48,000 compounds, of which about 450 (0.94%) were called active. Another 19% or so got no clear call; they are omitted. The call rests on the fitted dose curve; in most records, active means well fitted inhibition curve with a large enough effect; inconclusive means small, poorly fitted or top-dose-only effect; inactive means no such curve, though single readings can be large or run the other way. The list shows a part of the results.
Experiment: Primary qHTS for Identification of Small Molecule Inhibitors of Huntingtin Promoter Activity; further: nearly all actives have a fitted effect of over 50% in size
Settings: HEK293 HTT promoter firefly luciferase reporter (activity 0% = vehicle and -100% = no light), 24 h; series mostly up to 57.5 µM; activity change, negative = inhibition: at the top concentration
Procedure, shortened: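 HEK293 luciferase promoter-reporter cells (2,500/well) plated 24 h, then compounds added at up to 57.5 uM final for 24 h at 37 °C. Firefly luminescence by Dual-Glo, normalized to vehicle (0%) and zero RLU (-100%).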
Potency means the concentration at half of the fitted maximal effect.

SMILES | activity change, negative = inhibition | Potency
Cn1c(=O)n(CCCc2ccccc2)c(=O)c2c1nc1n2CCN1c1ccccc1 | inactive: -4.89% | 
CCOC(=O)c1scc(-c2ccc(C)cc2)c1S(=O)(=O)Nc1ccc(F)c(F)c1 | inactive: -28.4% | 
COc1ccc2c(c1)c(=O)c(C(=O)c1ccc(Cl)cc1)cn2CC(=O)Nc1ccc2c(c1)OCO2 | inactive: -4.24% | 
CCN(Cc1ccccc1)C(=O)CCS(=O)(=O)c1ccc2c(c1)oc(=O)n2C | inactive: -22.5% | 
Cc1c(Cl)cccc1NC(=O)NCCOCCn1c(=O)oc2ccccc21 | inactive: -26.3% | 
CCOC(=O)c1ccc(NC(=O)CN2C(=O)CC(c3ccc(C)c(C)c3)=Nc3ccccc32)cc1 | inactive: 27.7% | 
CCOc1ccc(CCNC(=O)c2ccc3c(c2)N(Cc2cccc(Cl)c2)C(=O)c2ccccc2S3(=O)=O)cc1OCC | inactive: -22.6% | 
Cc1cc(-c2nc3ccccc3s2)ccc1NC(=O)c1cc(Cl)ccc1Cl | inactive: 11.4% | 
Cc1sc(NC(=O)COc2ccc(C(C)(C)C)cc2)c(C(=O)OC(C)C)c1C | inactive: 1.26% | 
CCOc1cc(C2c3c(oc4ccccc4c3=O)C(=O)N2Cc2ccccc2Cl)ccc1O (centres undefined) | inactive: -11.5% | 
COc1cccc(NC(=O)C2CCN(S(=O)(=O)c3cc(-c4noc(C)n4)ccc3C)CC2)c1 |  | active: 12.6 µM
COc1cc(-c2noc(-c3cc(C)[nH]n3)n2)cc(OC)c1OC | inactive: 77.3% | 
CCn1cc(C(=O)N2CCN(c3ccccc3)CC2)c(=O)c2cc(S(=O)(=O)N3CCC(C)CC3)ccc21 | inactive: -5.54% | 
Cc1onc(-c2c(Cl)cccc2Cl)c1C(=O)N[C@@H]1C(=O)N2[C@@H]1SC(C)(C)[C@@H]2C(=O)O | inactive: 5.21% | 
CCOc1ccc(NC(=O)c2cn3c4c(ccc(Cl)c4c2=O)OC(C)C3)cc1 (centres undefined) | inactive: -7.72% | 
CCN1CCN(C(=O)c2cnn(-c3cccc(C)c3)c2C2CCN(C(=O)OC(C)(C)C)CC2)CC1 | inactive: 5.84% | 
COc1cccc(CNC(=O)c2cccn2-c2nnc(N3CCCC3)s2)c1 | inactive: -9.18% | 
Cc1cc(NC(=O)Nc2ccc(N(C)C)cc2)c2cc(F)cc(F)c2n1 | inactive: 0.759% | 
COc1ccc(NC(=O)N(Cc2ccco2)C2CCN(C(C)=O)CC2)c(OC)c1 | inactive: -15% | 
COc1ccc(CNC(=O)C2CCN(S(=O)(=O)c3cn(C)cn3)CC2)cc1 | inactive: -7.93% | 

SMILES | activity change, negative = inhibition | Potency
Cc1cccc(C)c1NC(=O)CN(C)S(=O)(=O)c1ccc2c(c1)n(C)c(=O)c(=O)n2C | inactive: -11.1% | 
CCc1ccc(OCC(=O)NCC(c2ccc(OC)cc2)N2CCOCC2)cc1 (centres undefined) | inactive: -16.8% | 
CCSc1nc(=O)c2c(n1C)NC(=O)CC2c1ccc(O)cc1OC (centres undefined) | inactive: -6.93% | 
COc1ccc(-n2c(=O)c3sc4ccccc4c3n(Cc3ccccc3)c2=O)cc1 | inactive: -9.07% | 
CC(=O)c1cccc(NC(=O)Cn2c(C)c3cnn(-c4ccccc4)c(=O)c3c2C)c1 | inactive: -26.6% | 
Cc1ccc2c(CNC3CCC(C)CC3)c(C(=O)O)n(Cc3cccc(F)c3)c2c1 (centres undefined) | inactive: -9.59% | 
CCN(CC)CCNC(=O)c1ccc2c(c1)N(Cc1ccccc1)C(=O)c1ccccc1S2=O (centres undefined) | inactive: -20.1% | 
COc1cc(NC(=O)c2cc3nc(-c4ccccc4)cc(-c4ccccc4)n3n2)c(OC)cc1Cl | inactive: 5.38% | 
CC1CCN(c2nc3ccc(C(=O)NCc4ccc(Cl)cc4)cc3s2)CC1 |  | active: 0.251 µM
COc1ccc(C2CC(=O)N(CC(=O)Nc3ccc(C(F)(F)F)cc3)c3ccccc3S2)cc1 (centres undefined) | inactive: -22.9% | 
COc1ccc(C(=O)Nc2ccc3nc(SCC(=O)N4CCOCC4)sc3c2)cc1 | inactive: -4.22% | 
CCc1nn(CC(=O)NC2CC2)c(=O)c2cc3ccccc3n12 | inactive: 33.1% | 
COc1cccc(CNC(=O)c2c3c(nc4ccccc24)C(=O)N(C2CCCCC2)C3)c1 | inactive: -13.4% | 
Cn1cc(C(=O)NCc2ccccc2)c(=O)c2cc(S(=O)(=O)N3CCCCCC3)ccc21 | inactive: -5.28% | 
Cc1ccccc1Oc1nc2c(c(=O)n(C)c(=O)n2C)n1Cc1ccc(Br)cc1 | inactive: -9.44% | 
COc1cc(OC)c(NC(=O)c2cc(S(=O)(=O)N3CCCC3)cn2C)cc1Cl | inactive: -7.98% | 
CC(NC(=O)CSc1n[nH]c(-c2ccccc2)n1)c1nc2ccccc2n1C (centres undefined) | inactive: -5.23% | 
CCCCc1ccc(Nc2ncnc3c2cnn3-c2ccc(C)cc2)cc1 | inactive: -19.8% | 
CCC1CCCCN1C(=O)Cn1c(=O)n(CC2CCC(C(=O)NC)CC2)c(=O)c2sccc21 (centres undefined) | inactive: -1.59% | 
O=C(Nc1ccc(OC(F)(F)F)cc1)NC1COc2ccccc2C1 (centres undefined) | inactive: -6.76% | 

SMILES | activity change, negative = inhibition | Potency
COC(=O)c1ccc(C(=O)OC)c(NC(=O)c2c(-c3ccccc3)c(-c3ccccc3)nn(C)c2=O)c1 | inactive: -23% | 
Cc1ccc2c(c1)nc(SCC(O)c1ccc(Br)cc1)n2C (centres undefined) | inactive: -3.14% | 
COc1ccc(N2CCN(Cc3nc4c(c(=O)[nH]c(=O)n4C)n3Cc3ccccc3)CC2)cc1 | inactive: -12.8% | 
Cn1c(=O)c2sccc2n2c(CCC(=O)NCc3ccccc3)nnc12 | inactive: 4.27% | 
O=C(NCc1ccc(F)cc1)c1cc2c(s1)-c1ccccc1SC2 | inactive: 1.29% | 
COc1cc2c(=O)n(CCC(=O)NCC3CCCO3)c(=O)n(CC(=O)Nc3c(C)cccc3C)c2cc1OC (centres undefined) | inactive: -10.9% | 
CCCCOC(=O)c1ccc(NC(=O)/C(C#N)=C/c2ccc(-c3ccccc3)o2)cc1 | inactive: -24.2% | 
CCOc1ccc(CCNC(=O)C2Cc3ccccc3N2C(=O)CC)cc1OCC (centres undefined) | inactive: -5.25% | 
Cc1ccc(N(CC(=O)Nc2ccc(Br)c(C)c2)S(=O)(=O)c2cccs2)cc1 | inactive: -26% | 
CCc1ccc(CNC(=O)Cc2c(C(=O)O)c(C)cn2C)cc1 | inactive: -16.3% | 
CCc1nnc(SCc2nc(-c3ccccc3)oc2C)c2cc3sccc3n12 | inactive: -9.49% | 
Cc1ccc(C)c(NC(=O)Cn2c(=O)n(Cc3cccs3)c(=O)c3cccnc32)c1 | inactive: -27.6% | 
COc1ccc(-c2cn3nc(N4CCC(C(=O)Nc5cc(Cl)ccc5OC)CC4)sc3n2)cc1 | inactive: 13% | 
CC(C)(C)OC(=O)N1CCC(c2c(C(=O)N3CCN(c4ncccn4)CC3)cnn2-c2ccc(F)cc2F)CC1 | inactive: -0.846% | 
COc1ccc(OC)c(NC(=O)C(CCSC)NS(=O)(=O)c2cccs2)c1 (centres undefined) | inactive: 7.54% | 
COc1ccc(-c2nc(SCC(=O)N3CCC(C)CC3)n[nH]2)cc1 | inactive: -10.4% | 
Nc1c(C(=O)Nc2ccc(Cl)cc2F)sc2nc(-c3cccs3)ccc12 | inactive: 38.6% | 
C[N+](C)(C)CCCCCC[N+](C)(C)C | inactive: -2.68% | 
COc1ccc(C(=O)Nc2ccc(C(=O)OCc3cc(=O)n4nc(C(C)C)sc4n3)cc2)cc1 | inactive: 33.4% | 

Reference: PubChem BioAssay AID1508623 (National Center for Advancing Translational Sciences (NCATS), 2021)
